# Assay results: PMC4336329 (PLoS ONE, 2015)
# Screen size: about 310,000 compounds; about 2,200 (0.71%) showed an effect of 50% or more. Effects have a minus sign here. The list shows a part of the results.
# Target: human ether-à-go-go-related gene (hERG) potassium channel (human, UniProt Q12809)
# Assay: primary screen, population patch clamp on CHO cells stably expressing hERG
# human ether-à-go-go-related gene (hERG) potassium channel, sequence (Q12809 whole entry, looked up): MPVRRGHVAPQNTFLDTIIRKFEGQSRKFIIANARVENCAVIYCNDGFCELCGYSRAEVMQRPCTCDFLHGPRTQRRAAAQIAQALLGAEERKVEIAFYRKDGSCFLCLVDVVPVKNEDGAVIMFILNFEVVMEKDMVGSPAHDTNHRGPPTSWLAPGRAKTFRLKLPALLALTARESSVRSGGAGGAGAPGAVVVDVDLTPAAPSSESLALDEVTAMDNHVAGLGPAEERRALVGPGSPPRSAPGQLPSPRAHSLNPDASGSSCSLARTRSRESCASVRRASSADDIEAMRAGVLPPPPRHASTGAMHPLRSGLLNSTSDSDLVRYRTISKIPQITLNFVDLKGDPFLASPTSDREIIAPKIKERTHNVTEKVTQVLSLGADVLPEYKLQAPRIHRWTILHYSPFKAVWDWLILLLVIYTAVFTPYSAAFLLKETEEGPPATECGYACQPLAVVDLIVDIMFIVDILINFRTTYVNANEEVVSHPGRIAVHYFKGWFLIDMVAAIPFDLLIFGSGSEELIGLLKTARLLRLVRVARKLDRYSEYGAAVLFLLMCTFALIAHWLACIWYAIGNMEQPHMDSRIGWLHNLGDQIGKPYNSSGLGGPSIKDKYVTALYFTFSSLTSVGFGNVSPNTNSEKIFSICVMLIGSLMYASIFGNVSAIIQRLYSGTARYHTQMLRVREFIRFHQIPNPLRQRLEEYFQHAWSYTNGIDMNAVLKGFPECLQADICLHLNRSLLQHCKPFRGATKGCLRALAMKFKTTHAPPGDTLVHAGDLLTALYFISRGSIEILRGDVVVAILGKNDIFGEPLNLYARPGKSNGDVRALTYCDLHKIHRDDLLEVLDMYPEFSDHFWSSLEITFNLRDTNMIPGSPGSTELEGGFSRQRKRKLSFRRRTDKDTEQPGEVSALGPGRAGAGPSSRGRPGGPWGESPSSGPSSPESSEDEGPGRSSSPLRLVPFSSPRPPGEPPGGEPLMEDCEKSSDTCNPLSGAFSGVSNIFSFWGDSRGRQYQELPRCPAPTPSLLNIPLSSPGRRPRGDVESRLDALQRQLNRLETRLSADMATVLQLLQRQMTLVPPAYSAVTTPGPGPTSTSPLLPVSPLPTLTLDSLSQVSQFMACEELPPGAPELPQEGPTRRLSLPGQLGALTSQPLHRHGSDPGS
row,SMILES,"hERG current change (%, negative = inhibition) at 1uM [%]"
1,CC(=O)Nc1cccc(NC(=O)CSc2ncc(C(=O)Nc3ccc(F)cc3)c(=O)n2C)c1,-3.89
2,CCOC1(OCC)N=C(N)C2(C#N)C(c3cccc(OC)c3OC)C12C#N (stereo not shown),3.32
3,CCn1c(=O)n(CC)c2cc(N3CCCC3)c(NC(=O)c3ccc(C)c([N+](=O)[O-])c3)cc21,10.6
4,O=C(Oc1c(CN2CCOCC2)cc(Cl)c2cccnc12)c1ccccc1Br,9.55
5,COc1ccc(-c2noc(CCC(=O)N3CCC(C)CC3)n2)cc1,-3.61
6,CCN(CC)CCNC(=S)N1CCn2c(nc3ccccc32)C1,-5.56
7,Cc1ccc(CC(=O)NC2CCSC2=O)cc1 (stereo not shown),16.9
8,CCNC(=S)N1CCN(c2nc(CC)nc3sc4c(c23)CCCC4)CC1,-1.92
9,O=C1CCC(C(=O)N2CCCCO2)CN1Cc1cccc(C(F)(F)F)c1 (stereo not shown),-6.21
10,O=C(CCC1CCCC1)NCc1cccs1,20.7
11,COc1ccc(OCc2nnc(SCC(=O)c3c(N)n(C)c(=O)n(C)c3=O)n2-c2ccccc2F)cc1,18.6
12,COc1cc(NC(=O)CC(C)C)ccc1NC(=O)c1ccco1,8.43
13,O=C(NC(=S)NC1CCSC1=O)c1ccccc1 (stereo not shown),13.2
14,CCN(CC)C(=O)Cn1c(=O)n(-c2ccccc2)c(=O)c2c3c(sc21)CCC3,19
15,NC(=O)c1ccc(Nc2ccc3c(c2)CCC3)c([N+](=O)[O-])c1,9.4
16,Cc1cccc(C)c1NC(=O)C1=C(O)c2ccccc2N(C)S1(=O)=O,15.7
17,CN(Cc1nc(-c2cnccn2)no1)CC1CCN(Cc2ccccc2)CC1,1.08
18,N#CC(C#N)=CN=c1ccn(Cc2ccc(Cl)cc2Cl)cc1,11.6
19,COc1ccc(CC(=O)Oc2ccc(C#N)cc2)cc1,17.9
20,C[C@]1(C(=O)NCCc2c[nH]c3ccccc23)C=C[C@@H](Cc2ccccc2)N1C(=O)c1ccccc1,7.98
21,CC(C)(C)NC(=O)NC(=O)CN1CCc2ccccc21,3.59
22,Cc1cc(C)nc(N/N=C/c2ccccc2)n1,4.71
23,Cc1noc(NC(=O)c2ccccc2Cl)c1C#N,7.33
24,Cc1ccc(-c2ccc([C@H]3[C@@H]4C=CCC[C@@]4(C)C(=O)N3Cc3ccccc3)c(F)c2)cc1,12.2
25,OC(CNC1Cc2ccccc2C1)c1ccccc1 (stereo not shown),10.3
26,Cc1ccc(C(=O)Nc2ccccc2C(=O)NC(CC(=O)O)C(=O)O)cc1 (stereo not shown),1.68
27,O=C(COC(=O)c1ccc([N+](=O)[O-])o1)Nc1cccc2ccccc12,15.1
28,CN(CC(=O)Nc1cccc(S(=O)(=O)NC2=NCCC2)c1)Cc1cccc(F)c1,6.3

row,SMILES,"hERG current change (%, negative = inhibition) at 1uM [%]"
1,CCOC(=O)N1CCN(c2ccccc2O)CC1,3
2,COc1cc(C(=O)N2CCCN(c3nc4cc(C)ccc4cc3C#N)CC2)cc(OC)c1OC,-11.6
3,Cc1cc(NC(=O)c2cc3ccccc3o2)cc(C)c1OCC(=O)N1CCOCC1,-9.6
4,CCCN(CC(=O)Nc1ccccc1OC)C(=O)CSC(=S)N1CCCC1,-10.8
5,O=C(CCC(=O)N(CC(=O)NC1CCCCC1)Cc1ccccc1)Nc1nccs1,16.8
6,CCCCN(CCCC)c1nc2ccccc2nc1C(C#N)C(=O)NCCCOC (stereo not shown),8.02
7,COc1ccc(NC(=O)COC(=O)COc2cccc(Br)c2)cc1OC,11.2
8,CCOC(=O)COc1ccc(S(=O)(=O)NC2CC2)cc1,18.9
9,CCN(CC)c1ccc(CNc2ccc3c(c2)ncn3C(C)(C)C)cc1,13.3
10,O=C(N=Nc1c(O)[nH]c2ccccc12)c1ccccc1NS(=O)(=O)c1cccs1,3.11
11,NS(=O)(=O)c1cc(C(=O)NCCOc2ccccc2)c(Cl)cc1Cl,16.7
12,Cc1cc(C)c(NC(=O)Cn2nnc(C(=O)NCCc3ccccc3)c2N)c(C)c1,11.2
13,O=C(COc1ccc(Cl)cc1)N1CCN(C(=O)c2cccs2)CC1,-23.8
14,CCc1ccc(NC(=O)CC2C(=O)N(c3ccc(OC)cc3)C(=O)N2CCOC)cc1 (stereo not shown),3.77
15,O=C(/C=C/c1ccccc1)C1=C(O)C(=O)N(CCO)C1c1ccccc1[N+](=O)[O-] (stereo not shown),11.9
16,O=C(Cn1ncc2c(=O)oc3ccccc3c21)NCCc1ccsc1,-3.1
17,Cc1ccccc1C(OCCN(C(C)C)C(C)C)c1ccccc1.O=C(O)/C=C\C(=O)O (stereo not shown),-38.4
18,COc1ccc2c(c1OC)C(=O)N(c1cccc(C)c1)C2,4.4
19,COCCCN(C(=S)Nc1cc(C)cc(C)c1)C(C)c1ccncc1 (stereo not shown),-26.1
20,Cc1cc(OCC(=O)OCC(=O)NCCN2C(=O)CSC2=O)ccc1Cl,10.2
21,O=C(O)C(Cc1ccccc1)N1C(=O)CCC1=O (stereo not shown),13.2
22,Cc1[nH]n(-c2ccccc2)c(=S)c1C=Nc1ccc([N+](=O)[O-])cc1,15.8
23,O=C(/C=C/c1ccco1)N1CCN(S(=O)(=O)c2ccc(F)c(F)c2F)CC1,1.12
24,CCOC(=O)/C(=C\c1ccc(OC(F)F)cc1)C1=Nn2c(nnc2-c2ccc(Cl)cc2)SC1,13.3
25,COCCNC(=O)CCCn1c(=O)c2cc(OC)c(OC)cc2n(CC(=O)Nc2ccccc2OC)c1=O,8.78
26,O=C(Cn1nnc2ccccc21)OCC(=O)c1ccccc1,12.6
27,O=C(O)C(=O)O.c1ccc(-c2ccccc2OCCOCCN2CCNCC2)cc1,9.05
